Legend:
[1] = system: HPAC human pancreatic cancer xenografts; experiment: Subcutaneous HPAC pancreatic cancer xenograft; format: in vivo, ICR SCID mice; settings: 500 mg/mouse i.p. two times a week, 8 doses, from day of injection; t test
Description: FIG. 24. Human PSCA MAbs Inhibit the Growth of Pancreatic Cancer Xenografts in SCID mice/Human HPAC. Pancreatic cancer cells (2×10^6/mouse) were injected subcutaneously into immunodeficient ICR SCID mice (Taconic Farm, Germantown, N.Y.). The mice were randomized into groups (n=10 animals/group) and treatment with the indicated human PSCA monoclonal antibody initiated the same day. Antibodies (500 mg/mouse) were delivered intraperitoneally two times a week for a total of 8 doses. […] Statistical analyses were performed using at test (two-sided, α=0.05).
In another experiment, Human HPAC pancreatic cancer cells (2×10^6/mouse) were injected subcutaneously into immunodeficient ICR SCID mice (Taconic Farm, Germantown, N.Y.). The mice were randomized into groups (n=10 animals/group) and treatment with the indicated human PSCA monoclonal antibody initiated the same day. Antibodies (500 mg/mouse) were delivered intraperitoneally two times a week for a total of 8 doses. […] Statistical analyses were performed using at test (two-sided, α=0.05) (FIG. 24).

[2] = biological target: T1, cell surface PSCA on PSCA-expressing cells (endogenous or recombinant) (Homo sapiens, UniProt O43653); experiment: PSCA human MAb screening by FACS; format: binding
T1 construct: host or cells: PSCA-expressing cells (endogenous or recombinant)
Description: FIGS. 9A and 9B. Screening for human PSCA antibodies by FACS. Antibody concentration from supernatants was determined by ELISA. 50 ul/well of (neat) was added to 96-well FACS plates and serially diluted. PSCA-expressing cells were added (endogenous or recombinant, 50,000 cells/well) and the mixture incubated at 4° C. for two hours. Following incubation, the cells were washed with FACS Buffer and further incubated with 100 ul of detection antibody (anti-hIgG-PE) for 45 minutes at 4° C. At the end of incubation, the cells were washed with FACS Buffer, fixed with formaldehyde and analyzed using FACScan. Data were analyzed using CellQuest Pro software. Solid histograms represent data from negative control cells and open histograms indicate data from PSCA-positive cells.
Primary hybridoma screening for MAbs to PSCA was performed by FACS. The protocol was as follows: 50 ul/well of hybridoma supernatant (neat) or purified antibodies (in serial dilutions) were added to 96-well FACS plates and mixed with PSCA-expressing cells (endogenous or recombinant, 50,000 cells/well). The mixture was incubated at 4° C. for two hours. […] At the end of incubation, the cells were washed with FACS Buffer, fixed with Formaldehyde and analyzed using FACScan. Data were analyzed using CellQuest Pro software. […]

B1: Ha1-1.16: fully human gamma 1 anti-PSCA monoclonal antibody, PSCA-GST immunization; ATCC PTA-6698; sequences FIG. 2J-2K (antibody)
VH: QVQLQQSGPGLVKPSQTLSLTCAISGDSVSSNSAAWNWIRQSPSRGLEWLGRTYYRSKWYNGYAVSVKSRMTINPDTSKNQFSLQLNSVTPEDTAVYYCARERLGELYGMDVWGQGTTVTVSSASTKGPSVFPLAPSSKST
VL: QLTQSPDSLAVSLGERATINCKSSQNILYRSSKKNHLVWYQQKPGQPPKLLIYWASTRESGVPARFSGSGSGTDFTLTISTLQAEDVAVYYCQQYYSTPPTFGQGTRLEIKRTVAAPSVFIFPPSDEQLKSGTASVVCLLNNFYPREAKVQWKVDNALQSG
inhibition of subcutaneous tumor growth [1]: significantly inhibited the growth | react and bind with cell surface or immobilized PSCA [2]: react and bind with cell surface or immobilized PSCA | binding to endogenous cell surface PSCA ([2]; PSCA expressed in prostate cancer xenograft cells): bind endogenous cell surface PSCA

From patent US20130041138A1, “ANTIBODIES THAT BIND TO PSCA PROTEINS FOR DIAGNOSIS OF CANCER” (priority 2003, published 2013)
